Patent CN113461820A (SUZHOU NOVOPROTEIN SCIENT INC, dated 2021)

Target: T1, CD19 (CD19+靶细胞上: Raji细胞, PBMC中的CD19+B细胞) (human, UniProt P15391 20-556)
T1 sequence (looked up): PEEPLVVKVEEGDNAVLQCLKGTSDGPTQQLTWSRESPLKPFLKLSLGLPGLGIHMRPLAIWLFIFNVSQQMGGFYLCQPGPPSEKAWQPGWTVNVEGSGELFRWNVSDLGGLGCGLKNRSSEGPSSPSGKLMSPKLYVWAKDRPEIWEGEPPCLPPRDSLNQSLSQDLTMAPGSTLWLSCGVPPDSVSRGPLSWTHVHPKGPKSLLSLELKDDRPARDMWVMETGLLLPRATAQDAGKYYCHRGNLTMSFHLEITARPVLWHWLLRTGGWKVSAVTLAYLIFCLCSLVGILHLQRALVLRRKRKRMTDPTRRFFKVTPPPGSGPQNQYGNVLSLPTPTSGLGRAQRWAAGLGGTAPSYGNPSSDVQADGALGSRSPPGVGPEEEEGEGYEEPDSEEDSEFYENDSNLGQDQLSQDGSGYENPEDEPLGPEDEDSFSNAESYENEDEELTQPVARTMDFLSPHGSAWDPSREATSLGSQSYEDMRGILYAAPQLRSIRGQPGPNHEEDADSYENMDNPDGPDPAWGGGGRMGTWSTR
Test: cell-based or functional assay

B1: 靶向CD3和CD19的双特异抗体SC30A (bispecific antibody)
chain: DIQLTQSPASLAVSLGQRATISCKASQSVDYDGDSYLNWYQQIPGQPPKLLIYDASNLVSGIPPRFSGSGSGTDFTLNIHPVEKVDAATYHCQQSTEDPWTFGGGTKLEIKGGGGSGGGGSGGGGSQVQLQQSGAELVRPGSSVKISCKASGYAFSSYWMNWVKQRPGQGLEWIGQIWPGDGDTNYNGKFKGKATLTADESSSTAYMQLSSLASEDSAVYFCARRETTTVGRYYYAMDYWGQGTTVTVSSGGGGS[letters of about 120 residues omitted]GGGGSGGGGSGGGGSQTVVTQEPSLTVSPGGTVTLTCGSSTGPVTGGNYPNWVQQKPGQAPRGLIGGTKFLAPGTPARFSGSLLGGKAALTLSGVQPEDEAEYYCVLWESNRWVFGGGTKLTVL
报告基因法 (Jurkat-NFAT-Luc, 含有靶细胞) EC50: 1.36 ng/mL
